Out of some 390,000 compounds screened, about 17,000 (4.4%) were called active. The inconclusive results got no clear call from the source; some entries with a clear call stand among them for comparison. The call rests on the fitted dose curve; in most records, active means well fitted inhibition curve with a large enough effect; inconclusive means small, poorly fitted or top-dose-only effect; inactive means no such curve, though single readings can be large or run the other way. Where the call is inconclusive, the potency comes from a doubtful curve fit.
Biological target: Lysine-specific demethylase 4A (Homo sapiens) (UniProt O75164)
Sequence of UniProt O75164 (O75164 whole entry, looked up, the tested form may be a part): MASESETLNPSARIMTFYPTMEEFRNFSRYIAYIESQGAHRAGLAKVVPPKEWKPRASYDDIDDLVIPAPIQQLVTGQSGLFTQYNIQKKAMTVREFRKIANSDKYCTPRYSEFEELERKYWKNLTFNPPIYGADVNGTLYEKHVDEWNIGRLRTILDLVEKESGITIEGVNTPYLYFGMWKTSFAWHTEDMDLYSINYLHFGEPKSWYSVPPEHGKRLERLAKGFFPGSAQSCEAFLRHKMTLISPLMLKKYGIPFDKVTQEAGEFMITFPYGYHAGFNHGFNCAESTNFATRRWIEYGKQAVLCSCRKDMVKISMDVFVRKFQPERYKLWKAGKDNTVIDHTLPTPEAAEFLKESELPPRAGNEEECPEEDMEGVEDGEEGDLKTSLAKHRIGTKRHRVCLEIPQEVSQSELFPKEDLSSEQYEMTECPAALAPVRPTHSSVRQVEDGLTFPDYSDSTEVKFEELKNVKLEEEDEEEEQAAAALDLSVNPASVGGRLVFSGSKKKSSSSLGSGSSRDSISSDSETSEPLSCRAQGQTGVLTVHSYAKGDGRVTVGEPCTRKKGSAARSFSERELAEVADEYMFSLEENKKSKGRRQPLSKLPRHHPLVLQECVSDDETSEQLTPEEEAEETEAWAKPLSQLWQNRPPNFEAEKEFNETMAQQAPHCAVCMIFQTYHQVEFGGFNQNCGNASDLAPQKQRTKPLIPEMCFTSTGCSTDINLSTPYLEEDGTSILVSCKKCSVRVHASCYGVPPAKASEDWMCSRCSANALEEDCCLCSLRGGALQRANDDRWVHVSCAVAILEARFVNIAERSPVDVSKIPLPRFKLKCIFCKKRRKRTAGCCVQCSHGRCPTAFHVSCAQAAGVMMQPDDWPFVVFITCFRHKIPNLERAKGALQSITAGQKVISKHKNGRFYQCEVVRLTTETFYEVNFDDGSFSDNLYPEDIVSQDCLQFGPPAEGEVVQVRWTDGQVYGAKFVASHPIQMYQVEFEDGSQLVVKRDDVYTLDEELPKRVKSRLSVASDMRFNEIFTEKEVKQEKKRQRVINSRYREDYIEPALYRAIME
Assay: qHTS Assay for Inhibitors of JMJD2A-Tudor Domain; further: nearly all actives have a fitted effect of over 50% in size
Details: AlphaScreen JMJD2A-Tudor / H3K4me3 peptide binding; activity change, negative = inhibition: at 114 µM (top of the series)
On the % scale 0 is the no-effect control and ±100 the full control effect; potency means the concentration at half of the fitted maximal effect; tags describe the fitted curve by direction and shape.

Potency, inactive:
Nc1nccc(/C=C/c2ccc(Cl)cc2)n1, COc1ccc(-c2nc3sc(CCNC(=O)c4ccccc4C)c(C)n3n2)cc1, CCCCN1CCc2nc(N3CCN(C)CC3)ncc2C1, Cc1cccc(NC(=O)CSc2nnc(-c3ccncc3)n2C)c1, CCOc1cc(N2CCOCC2)c(OCC)cc1NC(=O)COC(=O)C1CCCN1S(=O)(=O)c1ccccc1F (stereo not drawn), Cc1nc2cc(NC(=O)N3CCN(c4ccccn4)CC3)ccc2o1, Cc1cc(=O)oc2cc(OCC(=O)NCCCn3ccnc3)ccc12, O=C(Cc1csc(NC(=O)Nc2ccc(Cl)cc2)n1)NC1CCCC1, COc1ccc(CN2C(=NC(=O)C3CCCO3)SC3CS(=O)(=O)CC32)cc1OC (stereo not drawn), CC(CNCCCn1ccc(NC(=O)OCc2ccccc2)nc1=O)c1ccccc1 (stereo not drawn), Cc1ccccc1CSc1nc2cccnc2n1Cc1ccc(C(=O)NC2CC2)cc1, CCOc1ccc(NC(=O)Cn2c(=O)cc(C)c3c(C)nn(-c4cccc(Cl)c4C)c32)cc1, Cc1nn(C)c(Cl)c1CN1CCC(CO)(CCOc2ccccc2)CC1, CCOC(=O)C1=C(CN(CC)Cc2ccccc2)NC(=O)NC1c1ccc(OC(C)C)cc1 (stereo not drawn), O=C(Nc1cccc(C(F)(F)F)c1)c1cncs1, O=S(=O)(NC1CCN(S(=O)(=O)c2c(F)cccc2F)C1)c1ccc2c(c1)OCCO2 (stereo not drawn), COCCCNC(=S)NC(=O)c1ccc([N+](=O)[O-])cc1, O=C(Cn1c(=O)n(Cc2ccc(F)cc2)c(=O)c2ccccc21)NCC1CCCO1 (stereo not drawn), CC(C)(CN1CCc2ccccc2C1)NS(=O)(=O)c1ccc(Cl)cc1, O=C(CNC(=O)c1ccc(Cl)cc1)OCc1cc(=O)n2nc(C3CCCCC3)sc2n1

Potency, inconclusive:
CC(=O)N1CCc2cc(Br)cc(S(=O)(=O)N3CCN(c4cccc(C)c4)C(C)C3)c21 (stereo not drawn) 14.1 µM [inhibitor, full curve, poor fit], C=C(C)COc1ccc(-c2nc(N)ncc2-c2ccc(Br)cc2)c(O)c1 50.1 µM [inhibitor, partial curve], C/C(=N\NC(=O)Cc1cccn1C)c1ccc2ccccc2c1 56.2 µM [inhibitor, partial curve], CC(C)N1CCC(NC(=O)Nc2ccccc2)CC1 22.4 µM [inhibitor, single point], CN(C)c1ccc(CNC(=O)CCCn2ccc3cc(S(=O)(=O)N4CCCC4)ccc32)cc1 50.1 µM [inhibitor, partial curve], CC(=O)OCC1=C(C(=O)O)N2C(=O)[C@@H](NC(=O)Cc3ccccc3)[C@H]2SC1 79.4 µM [inhibitor, single point], CCN(C(=O)c1ccc(NC(C)=O)cc1)c1ccccc1 100 µM [inhibitor, partial curve, poor fit], Cn1c(SCC(=O)Nc2ccc3nc(SCC(=O)N4CCCC4)sc3c2)nnc1-c1ccccc1 7.94 µM [inhibitor, full curve, poor fit], Cn1cnc2c(N/N=C/c3cccs3)ncnc21 31.6 µM [inhibitor, partial curve], O=C(CCc1nnc2ccc(NCc3ccccc3Cl)nn12)NCC1CCN(C2CCCC2)C1 (stereo not drawn) 56.2 µM [inhibitor, partial curve], O=C(/C(=C/O)N=Nc1ccccc1)c1ccncc1 56.2 µM [inhibitor, partial curve], CCc1ccccc1NC(=O)c1nc(-c2ccncc2)no1 79.4 µM [inhibitor, partial curve], Cc1ccc(-c2cc(C(=O)N3CCN(c4ccccc4)CC3)c3ccccc3n2)cc1C 14.1 µM [inhibitor, full curve, poor fit], Cc1cc(C(C)(C)C)cc(C)c1Cn1c2[n+](c3ccc(C(F)(F)F)cc31)CCCCC2 28.2 µM [inhibitor, single point], CCSc1ccc2cc(OC)ccc2[n+]1CC 35.5 µM [inhibitor, single point], CCOC(=O)c1c(S(=O)(=O)N2CCC(C(=O)N3CCN(c4cc(C)ccc4C)CC3)CC2)c(C)n(C)c1C 50.1 µM [inhibitor, partial curve], CCOC(=O)c1ccc(N2C(=O)c3n[nH]c(-c4ccco4)c3C2c2ccc(F)cc2)cc1 (stereo not drawn) 22.4 µM [inhibitor, full curve], O=C(N/N=C/c1cccc([N+](=O)[O-])c1)C1CC(=O)N(c2ccc(F)cc2)C1 (stereo not drawn) 100 µM [inhibitor, partial curve, poor fit], Cc1ccc(-c2ccc(CCC(=O)O)n2CC(=O)O)cc1 89.1 µM [inhibitor, single point], COc1ccc(C2C3=C(N=C4SCC(=O)N42)c2ccccc2CC3)cc1OC (stereo not drawn) 39.8 µM [inhibitor, partial curve], COc1ccc(NC(=O)c2c(NCc3cccc(F)c3)sc3c2CCCC3)c(OC)c1 35.5 µM [inhibitor, full curve], O=C(NCc1ccccc1)C1CCN(S(=O)(=O)c2ccc3[nH]c(=O)ccc3c2)CC1 28.2 µM [inhibitor, single point], CCOc1ccc(Nc2nc(C)c(NC(=O)c3cccc(OC)c3)c(Nc3ccc(OCC)cc3)n2)cc1 5.01 µM [inhibitor, full curve, poor fit], Oc1c(N=NC(=S)Nc2ccccc2F)c2ccccc2n1Cc1ccccc1 3.55 µM [inhibitor, full curve], CSCCC(NC(=O)c1c(C)oc2c1CCCC2)C(=O)O (stereo not drawn) 56.2 µM [inhibitor, partial curve], Cc1cc(/C=N\NC(=O)CC(=O)NC2CCCCC2)c(C)n1-c1cccc(Cl)c1Cl 31.6 µM [inhibitor, partial curve], Cc1[nH]c2ccc(C(=O)OCC(=O)Nc3cccc(S(N)(=O)=O)c3)cc2c1C 56.2 µM [inhibitor, partial curve], Cc1cc(Br)ccc1NC(=O)CN(C)C(=O)c1cccc(S(=O)(=O)N2CCN(C)CC2)c1 2.51 µM [inhibitor, full curve, poor fit], N#Cc1ccc(N2CCOCC2)c([N+](=O)[O-])c1 14.1 µM [inhibitor, full curve, poor fit], Cn1cc(CN2CCN(c3ccccc3)CC2)c2ccccc21 44.7 µM [inhibitor, partial curve], CCOc1ccc2nc3sc(C(=O)N4CCN(C)CC4)c(N)c3cc2c1 89.1 µM [inhibitor, single point], Cc1ccc2nc(/C(C#N)=C\c3ccc(Oc4ccc(C(F)(F)F)cc4[N+](=O)[O-])cc3)[nH]c2c1 56.2 µM [inhibitor, partial curve, poor fit], CC1CCCCC1NC(=O)COC(=O)c1ccc2ncsc2c1 (stereo not drawn) 89.1 µM [inhibitor, single point], COc1ccc(-c2csc(N(CCCN(C)C)C(=O)c3cccs3)n2)cc1 56.2 µM [inhibitor, partial curve, poor fit], Cc1cn(CC(=O)NCC(c2ccccc2)c2ccccc2)c(=O)[nH]c1=O 35.5 µM [inhibitor, full curve], COc1ccc(CNC(=S)N/N=C(/C)c2ccccc2)cc1 35.5 µM [inhibitor, full curve, poor fit]

Potency, active:
Oc1ccc(NCc2ccc(OCc3ccccc3Cl)cc2)cc1 50.1 µM, COc1ccc(NC(=O)Cn2nnc(C(=O)NCc3cccs3)c2N)c(OC)c1 22.4 µM, CCOc1cccc(C=Nc2cc(C)cc(C)c2O)c1O 17.8 µM, Cc1ccc(-c2csc3n[nH]c(=S)n23)cc1 1.12 µM, Cc1nn(C)c(-c2n[nH]c(=S)n2Cc2ccco2)c1Cl 22.4 µM, O=S(=O)(O)c1cc(O)c2ccc(Nc3ccccc3)cc2c1 2.82 µM, COc1cc(OC)c(CNC2CCCCCC2)cc1Br 10 µM, C/C(=N\Nc1ccc([N+](=O)[O-])cc1[N+](=O)[O-])C(C)(C)C(C(=O)O)C(=O)O 22.4 µM, CNC(=O)c1nc[nH]c1C(=O)NC 28.2 µM, Cc1[nH]c2ccccc2c1Cc1n[nH]c(=S)o1 79.4 µM, CCOC(=O)C1=C(C)N=C2c3ccccc3C(=O)C2C1c1ccc(Cl)cc1 (stereo not drawn) 39.8 µM, COC(=O)CNC(=O)C1Nc2ccccc2C2C=CCC12 (stereo not drawn) 56.2 µM, COc1cccc(C(Nc2ccccn2)c2oc(CO)cc(=O)c2O)c1 (stereo not drawn) 44.7 µM, Cc1ccc(NC(=O)CSc2nc(NS(=O)(=O)c3ccccc3)cc(=O)[nH]2)cc1 50.1 µM, COc1ccc2c(c1)CC/C(=C\c1ccc(OC)c(Cn3nc(C)cc3C)c1)C2=O 89.1 µM

Activity change, negative = inhibition, inactive:
Nc1nonc1/C(=N/O)N1CCN(CCO)CC1 -4.58% [at 11.4 µM], Cc1ccc(N2C(=O)CC(Sc3ccccc3C(=O)O)C2=O)cc1C (stereo not drawn) -9.02% [at 11.4 µM]
